# The supplement of paper PMC11417369
# Some of the results follow.
# System: PF3D7_0420300 AP2 domain 1 (GST-tagged)
# Experiment: gcPBM binding intensity (ln(normalized median fluorescence intensity)); higher = stronger DNA binding
# Procedure, shortened: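 GST-tagged P. falciparum DNA-binding domains produced in E. coli were incubated for 1 h on an Agilent 4 × 180k array of primer-extended double-stranded 36-bp intergenic genomic probes with negative controls. Binding intensity is the highest Masliner-normalised natural-log median intensity across replicate spots of either probe orientation, with bound protein detected by Alexa488 anti-GST antibody at 488 nm.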
row,Sequence,gcPBM binding intensity (ln)
1,TATTTATTCACTTATTGTACTTATATATATAATAAA [XGTACX_site6147],9.26
2,ATTTTTTTTTGTTTAATGTTATGTGGTCATTAAATT [CACACA_negctrl_site1177],9.39
3,AAATTAAAAGAAAATACACACCTGTGGGTGCTTATA [CACACA_site5143],9.18
4,AATTAACCGAAACACACACACATATATATATATATA [CACACA_site3963],9.71
5,ATATATTTTTTTTAGCGTACATGCAAAAAAAAAAAA [XGTACX_site4590],8.82
6,TCATAAATTAAACACACACACACATCTGGATACCCC [CACACA_site9096],10.3
7,TTTTGTTGTTGTTGTTGTACATAAATAATAAAATAT [XGTACX_site8681],9.23
8,TATACACACAGACATGCATGCACATATATATATACA [TGCATGCA_site30],9.62
9,TATACACTTGTAATAACACACATTATTTTTTTTTTT [CACACA_site1324],9.46
10,ATAAAAAATTTAAGTATTTTTTACAAACCTATAAAT [GTGCAC_negctrl_site51],9.02
11,TTATATTTATATGTAATACAAAATAACAAAAAATTT [CACACA_negctrl_site1721],8.95
12,TATATATATATATCCACACACATACATATATTAATA [CACACA_site69],9.71
13,TTGGTAATTTTAAAATGTACTTATTATATATATATA [XGTACX_site5642],9.13
14,AATATATATACTTTTTTTTTTTTTTTTTTTTTTTTT [CACACA_negctrl_site520],9.33
15,TATGTTTACATATACGTGCACATGAATGTATACATT [GTGCAC_site9894],9.15
16,ACAAATTGTTAAAGGTGTACAATACATATATAAGAA [XGTACX_site4906],9.48
17,TTTAGCACAAACAAAAAAAAAATAGAAAAAAATATA [CACACA_negctrl_site1772],9.27
18,TATATACAGAATATATGTACATATTCATTTTATATT [XGTACX_site5139],9.21
19,AAATAAAAAATGGAAATCTTAACAAGAATCATTAAC [CACACA_negctrl_site1626],9.37
20,AAAAAATAAATAAATAGTACTTTAAAAGAAAAAAAA [XGTACX_site5051],9.23
21,CAATGTTACTATAATACACACAATATGTATTTGTCT [CACACA_site6668],9.56
22,AAAGAAAACCAAGTGGTGCATTTTCGTTACTTCATC,9.32

row,Sequence,gcPBM binding intensity (ln)
1,TTGTTTAACTTGTTAAATATAATGTATCTGTGGATA [GTGCAC_negctrl_site108],9.03
2,CATATTTTGAACTTCACACATATATATATATATATA [CACACA_site4228],9.18
3,GGTAGATTATTATTAACGAAAAATGTTTTTAACATA [GTGCAC_negctrl_site216],8.89
4,AATAATTGTAGACATGCACACACAAATATTATATAT [CACACA_site8181],9.73
5,CCTTTCTATTGAAAATGTACATATATATTATTATAT [XGTACX_site5527],9.22
6,AATAATTGTTATAGTTGTACAATACATATATTACAA [XGTACX_site30],9.19
7,TGTATATATAAAAATATACACACTGTATTATTGTAA [CACACA_site3757],9.21
8,TATAAAGACACGTACACACACTAAGTATATCCAATA [CACACA_site6855],9.95
9,GTATGATGTGAACATTGTACGAATGAATATATCTAA [XGTACX_site3789],9.04
10,ATATAAGTATACACATGTACATATTTCTTATGTATA [XGTACX_site2854],9.32
11,AAAAAATTTATAAAAGCACACAAAATAAAAAAAAAT [CACACA_site8420],9.63
12,AAAATGTTAAATATTAAATATGAAACAAAAAAAAAA [GTGCAC_negctrl_site211],9.21
13,TATAATTTAAAATACACACACATATATATAATATAT [CACACA_site2000],9.9
14,TCCAAATGAAAAAATTGTACATATTTTATCATATAT [XGTACX_site6159],8.94
15,TAAATACATTTATATACACACCTATATATATATATA [CACACA_site5137],9.36
16,ATAAGAAATTTCATACGTACATAAATAAATATATAT [XGTACX_site2932],9.22
17,TAAAAAAAAGGAAATACATGCATCTACATATATATA [TGCATGCA_site500],9.2
18,AAAAACTAACTGTATTGTACTCTCTTATAAATTCAC [XGTACX_site8967],9.15
19,ATATATTTCATTTTTGTACACACAACGTTGGAGGGT [CACACA_site8999],9.5
20,AAAAAAAAAATATATATATATATATAATATATATAT [TGCATGCA_negctrl_site329],8.82
21,ATATAGGTAATAATAATACACACGGTGAAATATAGA [CACACA_site4040],9.7
22,GACAATATTAAAACATGTACATGCATTTTATGAATA [XGTACX_site553],9.08
